Source: paper PMC4336329 (PLoS ONE, 2015)
The campaign covered roughly 310,000 compounds. About 14,000 (4.5%) showed an effect of 50% or more. Effects have a minus sign here. The list shows a part of the results.

Molecular target: human ether-à-go-go-related gene (hERG) potassium channel (human, UniProt Q12809)
Test: primary screen, population patch clamp on CHO cells stably expressing hERG
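Also: peak tail current of the secondary pulse compared with the same well before compound.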

Sequence of human ether-à-go-go-related gene (hERG) potassium channel (Q12809 whole entry, looked up): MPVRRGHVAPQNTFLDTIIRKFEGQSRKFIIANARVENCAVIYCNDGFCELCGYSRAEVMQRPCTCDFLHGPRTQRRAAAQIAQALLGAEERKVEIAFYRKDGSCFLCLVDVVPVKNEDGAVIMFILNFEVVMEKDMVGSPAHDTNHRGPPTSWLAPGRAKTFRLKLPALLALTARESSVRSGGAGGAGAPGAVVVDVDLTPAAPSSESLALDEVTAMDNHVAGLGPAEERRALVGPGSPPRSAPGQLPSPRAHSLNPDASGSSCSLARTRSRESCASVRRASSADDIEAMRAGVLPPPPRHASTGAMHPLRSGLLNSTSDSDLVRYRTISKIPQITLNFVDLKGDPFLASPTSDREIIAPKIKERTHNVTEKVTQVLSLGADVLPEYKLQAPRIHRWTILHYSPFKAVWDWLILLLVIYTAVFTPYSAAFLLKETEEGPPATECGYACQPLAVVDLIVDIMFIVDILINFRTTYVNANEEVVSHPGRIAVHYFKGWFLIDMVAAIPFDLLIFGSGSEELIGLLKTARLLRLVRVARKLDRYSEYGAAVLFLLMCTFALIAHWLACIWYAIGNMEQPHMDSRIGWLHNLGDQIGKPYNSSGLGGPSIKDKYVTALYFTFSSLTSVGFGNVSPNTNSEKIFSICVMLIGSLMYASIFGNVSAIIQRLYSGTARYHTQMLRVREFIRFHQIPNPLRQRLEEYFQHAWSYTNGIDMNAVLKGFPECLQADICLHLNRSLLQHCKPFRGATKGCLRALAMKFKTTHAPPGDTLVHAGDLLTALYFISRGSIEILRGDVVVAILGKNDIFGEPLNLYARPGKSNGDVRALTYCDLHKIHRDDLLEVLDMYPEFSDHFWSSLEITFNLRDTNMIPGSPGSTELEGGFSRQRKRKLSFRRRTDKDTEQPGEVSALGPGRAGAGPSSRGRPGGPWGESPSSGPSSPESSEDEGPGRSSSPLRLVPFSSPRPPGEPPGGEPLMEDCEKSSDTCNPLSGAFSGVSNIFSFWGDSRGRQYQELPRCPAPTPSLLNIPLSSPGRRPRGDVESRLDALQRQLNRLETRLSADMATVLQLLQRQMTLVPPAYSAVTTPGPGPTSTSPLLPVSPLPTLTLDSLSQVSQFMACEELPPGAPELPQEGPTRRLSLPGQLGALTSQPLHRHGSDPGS

SMILES | hERG current change (%, negative = inhibition) at 10uM
O=C(Cn1c(=O)oc2ccccc21)NCCc1ccccc1 | 5.7%
CCOC(=O)c1c(NC(=O)/C=C\C(=O)O)sc(C)c1-c1ccccc1 | 0.805%
Cc1cccc(C2c3[nH]c4ccccc4c3CCN2C(=O)c2ocnc2C)n1 (stereo not drawn) | -10.5%
CCN(CC)C(=S)SC1CCCCN(C(=O)c2ccc(F)cc2)C1=O (stereo not drawn) | -3.82%
COCCn1c(SCC(=O)Nc2ccc(S(N)(=O)=O)cc2)nc2ccccc21 | -32.1%
Cc1cccc(C)c1OCC(=O)Nc1cccc(-c2nnc(-c3ccccc3)o2)c1 | 4.24%
Cc1csc(SCC(=O)NC(=O)NCc2ccccc2)n1 | -0.745%
Cc1cc2occ(CC(=O)N(C)CC(=O)Nc3cccc(F)c3)c2cc1C | 1.3%
N=C1C(c2ccccc2)=C(O)C2CCc3ccccc3N12 (stereo not drawn) | 5.66%
Cc1cccc(NC(=O)CN(c2ccc(C(C)C)cc2)S(=O)(=O)c2c(C)nn(C)c2C)n1 | -12.2%
COc1ccccc1Nc1ncnc2c1oc1ccccc12.Cl | 14.2%
CCc1nn2c(NCCOC)cc(C)nc2c1-c1ccc(F)cc1 | -3.29%
CCn1c(N2CCN(Cc3ccc([N+](=O)[O-])cc3)CC2)nc2ccccc21.Cl | -74.7%
CC(=O)NC1CC2CCC(C1)N2Cc1ccc(C)cc1 (stereo not drawn) | -25.4%
O=C(CSc1nncc2ccccc12)Nc1ccc(F)cc1 | 16.8%
CCCc1ccccc1OCCNC(=O)c1cc(=O)n(C)c(=O)n1C | -10.6%
CCOC(=O)c1ccccc1NC(=O)C1CCCO1 (stereo not drawn) | 2.74%
CSc1nc(-c2ccc(Cl)cc2)c(C#N)c(=O)n1C | 15.6%
O=C(NCCS(=O)(=O)c1ccc(Br)cc1)c1ccccc1Cl | 9.41%
Cc1ccc(/C=N/n2cc(-c3ccccc3)[nH]c2=S)s1 | 30.6%
CCCN1CCC2(CC1)NC(CO)(CO)CO2 | 10.9%
Cc1ccc(C(=O)N2CCOCC2)c(F)c1F | 6.52%
O=C(Nc1cccc(-n2cnnn2)c1)c1cc(Cl)ccc1Cl | -2.42%

SMILES | hERG current change (%, negative = inhibition) at 10uM
O=C(NC1CCCC1)C(c1ccc(F)cc1)N(C(=O)Cc1cccs1)c1ccc2c(c1)OCCO2 (stereo not drawn) | 85.8%
O=C(Cc1ccc(Cl)cc1)NCC(=O)N1CCCCCC1 | -12.8%
Oc1ccc(C[C@H]2NCCc3cc(O)c(O)cc32)cc1O | 2.62%
Cc1nn(-c2ccccc2)c(NC(=O)c2cccs2)c(-c2ccccc2)c1=O | 11.8%
CCOC(=O)/C(C#N)=C/c1c(N2CCN(C)CC2)nc2c(C)cccn2c1=O | -26.1%
CC(C(=O)N1CCCC1)N(C)CC(=O)Nc1cccc(F)c1 (stereo not drawn) | -0.435%
CCc1ccc(NC(=O)CSc2nc3ccccc3c(=O)n2CCN2CCOCC2)cc1 | -67.6%
O=C(CN1CCN(c2ccccc2)CC1)Nc1ccc(F)cc1 | -39.7%
CC1(C)Cc2c(sc(NC(=O)C(=O)N3CCOCC3)c2C#N)CO1 | 17.7%
NC(=O)COc1ccc(Nc2nnc(-c3ccc(O)cc3)c3ccccc23)cc1 | -23.2%
COc1cc(C(=O)NNc2nc3cc4c(cc3s2)OCO4)cc(OC)c1OC | 4.6%
CC(=O)N1c2ccc(S(=O)(=O)N3CCCC(C(=O)Nc4cccc(Cl)c4)C3)cc2CC1C (stereo not drawn) | 6.1%
COc1ccc(NC(=O)NNC(=O)c2cc3ccccc3cc2O)cc1 | 18.2%
COc1ccc(S(=O)(=O)N(Cc2ccccc2)c2ccccc2C(=O)Nc2ccccc2C(=O)NCc2ccco2)cc1 | 20.3%
CC(=O)Oc1ccc2c(=O)c(N3C(=O)c4ccccc4C3=O)c(C)oc2c1 | 3.08%
c1cc2c(nn1)CCc1nonc1-2 | 21.9%
CCN1C(=O)[C@H]2[C@@H](c3ccc(C)cc3)N3C(=O)N(c4cccc(Br)c4)C(=O)[C@@]3(CC)[C@H]2C1=O | 0.974%
c1ccc(CNc2c3c(nc4ncnn24)CCC3)cc1 | -0.503%
CC(C)(CC(=O)O)CC(=O)N1CCN(c2nc3ccc(Cl)cc3s2)CC1 | 14.2%
COc1ccc(NC(=O)c2ccccc2NC(=O)C2CCCO2)cc1 (stereo not drawn) | 2.9%
COc1ccccc1Nc1nnc(SCc2cc(=O)n3ccsc3n2)s1 | -8.42%
COC(=O)C(C)Sc1ncnc2c1c(-c1ccccc1)cn2-c1ccc(OC)cc1 (stereo not drawn) | 4.16%
